These results are taken from the supplement of paper PMC11283458.

Counter-ions that a name gives are not always drawn. The list shows a part of the results. Most values come without repeats; read them as rough.

In assay [1] the test system is Mef2d microexon dual Nano/Firefly luciferase splicing reporter in Neuro-2a cells. The experiment in a line: B-score of Firefly/Nano luminescence ratio, V1 Mef2d microexon reporter (B-score (plate-normalised)); higher = more Mef2d microexon inclusion. To be noted: 24 h.
For assay [2] the test system is unchanged. The experiment in a line: B-score of Nano/Firefly luminescence ratio, V2 Mef2d microexon reporter (B-score (plate-normalised)); higher = more Mef2d microexon inclusion. The settings on record: 24 h.
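Wherever B-score of Nano/Firefly luminescence ratio, V2 Mef2d microexon reporter is given: compounds at 4 µM (PKI library 0.5 µM) on Dox-inducible N2A Flp-In cells with PEST-tagged luciferases, 384-well plates, B-score from per-plate median-polish residual over median absolute residual.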

On to `CCc1cnn2c(NCc3ccc[n+]([O-])c3)cc(N3CCCC[C@H]3CCO)nc12` (0.5 µM), for which the B-score in assay [1] is -5.23; in assay [2], -5.07.
Taken in the same sequence, the figures for `c1cc(-c2cnn3cc(-c4ccc(OCCN5CCCCC5)cc4)cnc23)ccn1` [Dorsomorphin dihydrochloride] (4 µM) were -10.7 and -17.8.
As for `C(=NNc1ccc2ccccc2n1)c1ccccn1` (4 µM), the B-score in assay [1] turned out to be 13.1; in assay [2], 2.07.
Consider `O=S(=O)(NCc1ccccn1)c1ccc(S(=O)(=O)c2ncc(C(F)(F)F)cc2Cl)s1` (4 µM), for which the B-score in assay [1] came out at 12.8; in assay [2], 7.8.
Take `NC(=O)c1ccc(CNc2ccccc2-c2ccccc2)c([N+](=O)[O-])c1` (4 µM): the results for the B-score in assay [1] and in assay [2] were -2.04 and -4.86, respectively.
In the case of `CC(C)(C)c1ccc(Oc2ccc(NC(=O)c3ccco3)cn2)cc1` (4 µM), the figures for the B-score in assay [1] and in assay [2] were 7.08 and 17.9, respectively.
On to `O=[N+]([O-])c1c(Oc2ccc(F)c(F)c2)nc2sccn12` (4 µM), for which the B-score in assay [1] is -2.08; in assay [2] it was -5.83.
On to `CC1=CC(C)(C)Nc2ccc(OC(=O)CCC3CCCCC3)cc21` (4 µM), for which the values for the B-score in assay [1] and in assay [2] were -3.14 and -6.6, respectively.
Turning to `COC(=O)Nc1nc2cc(C(=O)c3ccccc3)ccc2[nH]1` (4 µM), the B-score in assay [1] is -9.94; in assay [2] it was -14.3.
Consider `Cc1cc(NC(=O)Nc2cc(Cl)cc(Cl)c2)on1` (4 µM), for which the B-score in assay [1] was 1.35; in assay [2] it was 9.2.
In the same order, the values of `CC(=O)O[C@H]1C(=O)[C@@]2(C)[C@H]([C@H](OC(=O)c3ccccc3)[C@]3(O)C[C@H](OC(=O)[C@H](O)[C@@H](NC(=O)c4ccccc4)c4ccccc4)C(C)=C1C3(C)C)[C@]1(OC(C)=O)CO[C@@H]1C[C@@H]2O` [Taxol] (4 µM) are -3.6 and -11.9.
For `CC(C)(C)S(=O)(=O)c1sc(C=O)cc1C=O` (4 µM), the B-score is -0.674 in assay [1] and -5.43 in assay [2].
